Out of some 350,000 compounds screened, about 2,100 (0.6%) were called active. Inconclusive results, whose numbers are uncertain, are shown with a selection of clear calls.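 How the source made its calls: active means activity change of -60% or lower, but not beyond a set lower limit; inconclusive means change between -60% and -40%, or beyond the set limit; inactive means change above -40%.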
Each compound was assayed against Relaxin receptor 1 (Homo sapiens) (UniProt Q9HBX9) (assay: qHTS Assay for Antagonists of the Relaxin Receptor RXFP1). Conditions: HEK293-RXFP1, relaxin-stimulated cAMP HTRF, 30 min; at 57.5 µM; hits give low values.
On the % scale 0 is the no-effect control and ±100 the full control effect.

UniProt Q9HBX9, sequence (Q9HBX9 whole entry, looked up): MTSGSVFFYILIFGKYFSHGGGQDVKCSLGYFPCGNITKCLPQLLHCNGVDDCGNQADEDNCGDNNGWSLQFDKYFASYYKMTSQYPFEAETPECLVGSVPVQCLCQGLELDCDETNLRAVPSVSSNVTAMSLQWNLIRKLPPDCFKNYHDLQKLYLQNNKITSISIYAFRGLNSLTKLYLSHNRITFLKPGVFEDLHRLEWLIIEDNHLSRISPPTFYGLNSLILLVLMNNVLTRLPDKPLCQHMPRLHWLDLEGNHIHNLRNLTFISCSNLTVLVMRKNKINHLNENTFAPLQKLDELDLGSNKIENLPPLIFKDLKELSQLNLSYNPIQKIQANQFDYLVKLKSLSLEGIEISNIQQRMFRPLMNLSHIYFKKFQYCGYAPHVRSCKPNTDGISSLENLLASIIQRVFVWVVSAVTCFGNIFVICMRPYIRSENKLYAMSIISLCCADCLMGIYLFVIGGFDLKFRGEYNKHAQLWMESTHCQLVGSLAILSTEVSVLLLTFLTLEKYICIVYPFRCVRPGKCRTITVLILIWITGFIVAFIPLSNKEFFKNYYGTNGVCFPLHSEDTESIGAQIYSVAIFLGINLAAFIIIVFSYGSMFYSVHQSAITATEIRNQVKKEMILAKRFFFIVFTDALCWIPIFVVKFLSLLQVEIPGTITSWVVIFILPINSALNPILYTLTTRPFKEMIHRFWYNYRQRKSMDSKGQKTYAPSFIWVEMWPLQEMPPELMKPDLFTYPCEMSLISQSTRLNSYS

| SMILES | activity change, negative = inhibition |
| --- | --- |
| CCN(CC)S(=O)(=O)c1ccc(OC)c(NS(=O)(=O)Cc2ccccc2)c1 | inactive: -2.47% |
| CCCCC(O)(c1ccc(OC)cc1)C(CN1CCOCC1)c1ccccc1 (centres undefined) | inactive: -7.52% |
| COc1ccc2[nH]c3c(=O)n(CCCCC(=O)NCCN4CCCC4)c(=S)[nH]c3c2c1 | inconclusive: -47.1% |
| O=Cc1ccc(N2N=C(c3ccccc3)CC2c2ccccc2)cc1 (centres undefined) | inactive: -8.72% |
| NS(=O)(=O)c1ccc(CNC(=O)COc2ccc3c4c(c(=O)oc3c2)CCCC4)cc1 | inconclusive: -47.9% |
| CC(=O)c1cc(-c2ccccc2)n(CCC(=O)Nc2ccc(C(C)C)cc2)c1C | inconclusive: -55.2% |
| O=C(CCS(=O)(=O)c1ccccc1)Nc1cccc(-c2nc3ccccc3s2)c1 | inconclusive: -47.5% |
| CC(C)(C)c1csc(NC(=O)c2ccc(Br)o2)n1 | inconclusive: -49% |
| O=C(N/N=C/c1cccc(Br)c1)c1ccc(Cn2cc(Br)cn2)o1 | inconclusive: -44.8% |
| CCCN1C=CC(=CC=C(C#N)C#N)C=C1 | inconclusive: -45.6% |
| COc1cccc(NC(=O)COC(=O)c2ccccc2C(=O)N2CCN(c3ccccc3)CC2)c1 | inactive: -20.5% |
| CCOC(=O)c1sc2nc(CC(=O)OC)nc(N3CCN(c4ccc(OC)cc4)CC3)c2c1C | inactive: -18.1% |
| CCCCOCCOC(=O)c1cccnc1 | inactive: 8.56% |
| Cc1cccc(C)c1NC(=O)C1CCCN1S(=O)(=O)c1cccc2nsnc12 (centres undefined) | inactive: -0.518% |
| Cn1c(CS(=O)Cc2c(Cl)cccc2Cl)nnc1SCc1c(Cl)cccc1Cl (centres undefined) | inactive: 13.5% |
| CN(C)CCCN(C(=O)CCc1ccccc1)c1nc2ccc(Br)cc2s1 | inconclusive: -48.7% |
| O=C1NC(=S)S/C1=C\c1ccc(SCc2ccccc2)o1 | inconclusive: -47.2% |
| CCOc1ccccc1NC(=O)C1CCCC1 | inactive: -18.7% |
| C=CCn1c(=O)[nH]c2cc(C(=O)N3CC=C(c4ccccc4)CC3)ccc2c1=O | active: -72.3% |
| COc1ccc2oc(C(=O)NCC(c3ccco3)N(C)C)c(C)c2c1 (centres undefined) | inactive: -0.504% |
| CSc1ccccc1NC(=O)CN(Cc1ccc(Cl)cc1)S(C)(=O)=O | inconclusive: -49.5% |
| CCOC(=O)c1nc(Nc2cc(C)cc(C)c2)c2ccccc2n1 | inactive: -31.1% |

| SMILES | activity change, negative = inhibition |
| --- | --- |
| CC(=O)N1CCN(c2ccc(NC(=O)c3ccc(C(C)(C)C)cc3)cc2)CC1 | inconclusive: -51.2% |
| Cc1ccc(NC(=O)c2cc(N3C(=O)C=CC3=O)ccc2N2CCOCC2)cc1Cl | active: -71.4% |
| COC(=O)c1c(NC(=O)C(C)(C)C)sc2c1CCN(Cc1ccccc1)C2 | active: -68.4% |
| COc1ccc(NC(=O)c2ccc3ccccc3c2OC)cc1 | inconclusive: -40.7% |
| CCCCn1c(SCC(=O)NC2CC(C)(C)NC(C)(C)C2)nc2cc(S(N)(=O)=O)ccc21 | inactive: 7.15% |
| Cc1ccc2c(CSc3nc4nc(C)cc(C)n4n3)cc(=O)oc2c1 | inactive: -12.1% |
| O=C(O)c1cc(S(=O)(=O)NCCCN2CCCC2=O)ccc1Cl | inactive: -1.2% |
| O=C(C1CC1)N1CCc2sccc2C1c1ccc(Cl)cc1 (centres undefined) | inconclusive: -48.2% |
| Cc1nn(-c2ccc(Cl)cc2Cl)c(C)c1C(=O)O | inconclusive: -51% |
| CCc1ccc(N(CC)C(=O)c2sc3nc4n(c(=O)c3c2C)CCCC4)cc1 | inconclusive: -50.6% |
| CCn1nc(C)cc1-c1nnc(Sc2ncc([N+](=O)[O-])s2)n1C | active: -72.8% |
| O=C(CCC(=O)c1cccs1)NNC(=O)c1cccc(Cl)c1 | inconclusive: -44.4% |
| CCOC(=O)Cn1c(-c2cccs2)cc2cc(Cl)ccc21 | inconclusive: -42.6% |
| COc1ccc(C(C)=O)cc1COC(=O)c1ccc2ccccc2n1 | inconclusive: -41.8% |
| CCN(CC)c1ccc(CNS(=O)(=O)c2cc3c(cc2C)NC(=O)CO3)cc1 | inconclusive: -48.4% |
| CCOC(=O)c1ccc(NC(=O)CCC(=O)N2CCSc3ccccc32)cc1 | inconclusive: -40.6% |
| CCCCc1nc2cc(C(=O)N3CCC(O)CC3)ccc2o1 | inactive: -3.36% |
| O=C(Nc1ccccc1)c1nnsc1S(=O)c1ccc(Cl)cc1 (centres undefined) | active: -105% |
| [N-]=[N+]=NC1c2ccccc2C(=O)N1Cc1ccccc1 (centres undefined) | inactive: -5.26% |
| O=C(NC(=S)N1CCN(c2ccc(F)cc2)CC1)c1cccs1 | inconclusive: -54.2% |
| CC(C)CC(=O)n1nc(-c2cccnc2)nc1NCc1ccc(F)cc1 | inconclusive: -40.4% |
| O=C(c1ccccc1)c1ccc2nc(-c3ccco3)c(-c3ccco3)nc2c1 | active: -90.4% |

Reference: PubChem BioAssay AID1259400 (National Center for Advancing Translational Sciences (NCATS), 2018)
